Results as given in PubChem BioAssay AID493208 (National Center for Advancing Translational Sciences (NCATS), 2011).
Among all 44,000 compounds or so, about 340 (0.77%) were called active. Inconclusive results, whose numbers are uncertain, are shown with a selection of clear calls. Calls come from the whole dose curve; as a rule, active = well fitted inhibition curve with a large enough effect; inconclusive = small, poorly fitted or top-dose-only effect; inactive = flat fitted curve, though single readings scatter. Potencies of inconclusive entries are left out as doubtful fits.

Test: Acumen qHTS Assay for Inhibitors of the mTORC1 Signaling Pathway in MEF (Tsc2-/-, p53-/-) Cells: Sytravon; note: nearly all actives have a fitted effect of over 50% in size;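 for activity change, negative = inhibition: plate controls were DMSO for no effect and rapamycin for full effect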
Conditions: phospho-rpS6 immunofluorescence/PI, 24 h; series mostly up to 38.3 µM; activity change, negative = inhibition: at the top concentration
Text: NIH Molecular Libraries Probe Production Centers Network [MLPCN] NIH Chemical Genomics Center [NCGC] MLPCN Grant: NS059428-01 Assay Submitter (PI): Blenis, John; Hoffman, Greg; Harvard University NCGC Assay Overview: The mammalian target of rapamycin (mTOR) is an intracellular serine/threonine kinase Aberrant regulation of mTOR signaling plays a causative role in a number of human diseases, including cancer, benign tumors such as lymphangioleiomyomatosis (LAM) and Tuberous Sclerosis Complex (TSC), and metabolic diseases such as diabetes and obesity. This project aims to identify inhibitors of ribosomal protein S6 (rpS6) phosphorylation. The phosphorylation of rpS6 is a key event downstream of mTOR activation. The assay uses a phospho-specific antibody of phospho-rpS6 to detect inhibitors of mTOR activation. Mutations in the Tsc1 and Tsc2 genes are the underlying genetic lesions responsible for TSC, causing constitutive activation of the mTORC1 pathway and leading to profound effects on cell metabolism. Aberrant metabolism in cancer has recently received significant attention as a target to develop therapeutic agents in the treatment of cancer.1 As Tsc2-/- cells have lost the ability to respond to energy and growth factor deprivation, these cells are unable to properly down regulate cellular biosynthetic processes in response to metabolic stress, and are thus extremely sensitive to glucose deprivation-induced death.2 A central goal of this project is to explore the unique cell survival and metabolic properties of cells with Tsc1 or Tsc2 by screening for compounds that selectively target the Tsc2-/- MEFs by screening both Tsc2-/- and WT MEF cell lines. We hope to better understand these aspects of TSC physiology in order to exploit them for therapeutic benefit.
NCGC Acumen Assay Protocol Summary: For quantitative high throughput analysis of mTORC1 signaling, we developed a cell-based assay for immuno-fluorescence based detection of rpS6 phosphorylation on the Acumen Explorer that will be used a platform for the primary small molecule screen. Mouse embryonic fibroblasts (MEFs) are cultured in 1536-well plates using DMEM + 10% FBS. Twenty-four hrs after plating, test compounds (solubilized in DMSO) are delivered and incubated with the cells for 24 hrs at 37 degree Celsius. Following the incubation, media with compound is aspirated and the cells are fixed in 4% paraformaldehyde (PFA) containing PBS + 0.2% TX-100. Next, PFA is aspirated, cells are washed two times with PBS plus 0.2% TX-100 and the cells are blocked for 1 hr at room temperature (blocking buffer: LiCOR Blocking Buffer plus 0.2% TX-100). […] Cells are washed two times with PBS plus 0.2% TX-100, and stained with 10 uM propidium iodide (PI) for 20-25 minutes for cell number measurement (1:500 dilution of Hoescht staining is also added for IN Cell imaging). The plates are scanned on the Acumen Explorer laser scanning instrument (TTP Labtech) using the 488nm laser for simultaneous excitation of the Alexa-488 and PI. […] The normalized phospho-S6 staining is calculated as the ratio of the integrated Alexa 488 intensity divided by the integrated PI intensity for the single concentration rapamycin control (7.5 nM) and DMSO columns. […] Inhibition of the pathway is defined based on the normalized phospho-S6 intensity in rapamycin treated cells. Active cells are defined as those with a normalized phospho-S6 staining above this threshold, and each treatment is reported as the % positive cells in the well, where thresholds are defined by selecting wells with the highest and lowest signal and differentiating between the % non-active and % active populations. In addition to the pathway specific phospho-S6 endpoint, the number of PI stained cells from the Acumen is recorded as a measure of cell viability. The primary screen was performed with a MEF cell line in a defined genetic background, Tsc2-/-, p53-/- cell line stably transfected with an empty vector control (Tsc2-/- MEF).
Potency is the fitted concentration of half-maximal effect; tags give direction and shape of the fitted curve.

Which Potency does the source give for `CC(C)CCNC(=O)c1ccc(Cn2c(SCC(N)=O)nc3ccccc3c2=O)cc1` here?
The Potency was inconclusive [falling, partial curve, poor fit].

Which “activity change, negative = inhibition” value does the source give for `CCS(=O)(=O)c1cccc(C(=O)N2CCN(c3nc4c(C)ccc(Cl)c4s3)CC2)c1` here?
Its value is inactive: -21.1%.

With `CCCCCn1c(-c2cccc(C)c2)nc2ccccc21` as the molecule, how does the Potency read?
Its Potency is inconclusive [falling, single point].

For `CN(C)C1(CNC(=O)COc2ccc(C(C)(C)C)cc2)CCCCC1`, which Potency is on record?
Its Potency is inconclusive [falling, single point].

Which Potency does the source give for `Cc1ccc(Cn2c(=O)n(-c3ccc(C)c(C)c3)c(=O)c3c(C)c(C)sc32)cc1` here?
Its Potency is inconclusive [falling, partial curve, poor fit].

For `COc1cccc(CNc2nc3c(-c4cccc(C)c4)nnn3c3ccccc23)c1`, which Potency is on record?
Its Potency is inconclusive [falling, partial curve, poor fit].

For `CCOc1ccccc1NC(=O)c1cnc(N2CCOCC2)c2ccccc12`, which “activity change, negative = inhibition” value is on record?
The value was inactive: -3.95%.

For `COc1ccc(C)cc1NC(=O)CCNS(=O)(=O)c1cccc2nonc12`, which Potency is on record?
The Potency was active: 20.7 µM.

For `Cc1ccc(-n2nc3c(N4CCC(C(=O)NCCc5ccccc5C)CC4)nnc(C)c3c2C)cc1`, which “activity change, negative = inhibition” value is on record?
The value was inactive: -1.37%.

For `CCOC(=O)c1cnc2ccc(C(=O)OC)cc2c1Nc1ccc(N2CCOCC2)cc1`, which Potency is on record?
Its Potency is inconclusive [falling, single point].

For `COC(=O)c1ccc(Cn2c(SCC(=O)NCc3ccccc3)nc3ccccc32)cc1`, which “activity change, negative = inhibition” value is on record?
The value was inactive: -1.97%.

With `CCc1ccc(NC(=O)Cn2c(=O)n(-c3ccccc3)c(=O)c3ccc(C(=O)NCc4ccc5c(c4)OCO5)cc32)cc1` as the molecule, how does the Potency read?
Its Potency is inconclusive [falling, partial curve, poor fit].

Which Potency does the source give for `CCN1CCOC(=O)C1CC(=O)Nc1ccc(C(C)=O)cc1` (configuration not stated) here?
The Potency was inconclusive [falling, full curve, poor fit].

For `COc1ccc(NC(=O)c2c(C)oc3ccc(O)c(CN4CCC(C)CC4)c23)cc1`, which Potency is on record?
The Potency was inconclusive [falling, single point].

Which “activity change, negative = inhibition” value does the source give for `Cc1ccc(CNC(=O)C(=O)NCC(c2ccco2)S(=O)(=O)c2cccs2)cc1` (configuration not stated) here?
The value was inactive: -0.0272%.

For `O=C(NC1CCCCCC1)c1ccc2c(c1)sc1nc(-c3ccccc3)cn12`, which “activity change, negative = inhibition” value is on record?
Its value is inactive: 1.2%.

For `CCN1CCN(c2ncnc3c2cnn3-c2ccc(C)cc2)CC1`, which “activity change, negative = inhibition” value is on record?
Its value is inactive: 3.13%.

With `COc1ccccc1-n1c(/C=C/c2c(C)n(C)c3ccccc23)nc2ccccc2c1=O` as the molecule, how does the Potency read?
Its Potency is inconclusive [falling, partial curve, poor fit].

Which Potency does the source give for `CCC(C)OC(=O)/C(C#N)=C\c1ccc(-c2cccc(C(F)(F)F)c2)o1` (configuration not stated) here?
Its Potency is inconclusive [activator, partial curve, poor fit].

With `CC1CCN(S(=O)(=O)c2ccc3c(c2)CCN3C(=O)Nc2ccc(Br)cc2)CC1` as the molecule, how does the “activity change, negative = inhibition” value read?
Its value is inactive: -0.896%.

With `Cc1ccccc1C(=O)N1CCN(CCc2ccccn2)CC1` as the molecule, how does the Potency read?
The Potency was inconclusive [falling, partial curve, poor fit].

With `COc1ccc(C)cc1NC(=O)CSc1ccc(-c2ccccn2)nn1` as the molecule, how does the Potency read?
The Potency was inconclusive [falling, full curve].

With `COc1cccc(CNC(=O)CN2C(=O)COc3ccc(S(=O)(=O)Nc4ccccc4)cc32)c1` as the molecule, how does the “activity change, negative = inhibition” value read?
Its value is inactive: 1.18%.

With `O=C(Nc1ccc(Cl)cc1)c1cc(S(=O)(=O)N2CCc3ccccc32)ccc1F` as the molecule, how does the Potency read?
The Potency was inconclusive [falling, partial curve, poor fit].

With `Cc1cccc(N2CCN(CCCNC(=O)c3nnc(Cc4c(F)cccc4Cl)o3)CC2C)c1` (configuration not stated) as the molecule, how does the Potency read?
Its Potency is inconclusive [falling, partial curve, poor fit].

With `COc1cc(NC(=O)Cn2nc(-c3ccc(C)c(C)c3)ccc2=O)cc(OC)c1` as the molecule, how does the “activity change, negative = inhibition” value read?
The value was inactive: -5.32%.

With `COc1ccc(Cn2c(SCC(N)=O)nc3c(sc4ccccc43)c2=O)cc1` as the molecule, how does the “activity change, negative = inhibition” value read?
The value was inactive: -6.46%.

With `CCOc1ccc(Br)cc1CNCCSc1nnnn1-c1ccccc1` as the molecule, how does the Potency read?
The Potency was inconclusive [falling, partial curve, poor fit].

For `CCCS(=O)(=O)N1CC(=O)N(c2ccccc2C)C(C)(C(=O)NC2CCCC2)C1` (configuration not stated), which Potency is on record?
Its Potency is inconclusive [falling, partial curve, poor fit].

Which Potency does the source give for `Cc1cc(N2CCN(C)CC2)nc2ccc(NC(=O)Nc3cccc(Cl)c3)cc12` here?
Its Potency is inconclusive [falling, single point].

Which “activity change, negative = inhibition” value does the source give for `COc1ccc2c(c1)CC(C(=O)NCCCN1CCN(c3cccc(Cl)c3)CC1)CO2` (configuration not stated) here?
Its value is inactive: 1.99%.

With `CCOC(=O)c1sc2ccccc2c1S(=O)(=O)N1CCN(c2cccc(C)c2)C(C)C1` (configuration not stated) as the molecule, how does the “activity change, negative = inhibition” value read?
Its value is inactive: -20.1%.

With `Cc1ccc2c(c1)-c1c(cnc3cc(-c4ccc(F)cc4)nn13)CO2` as the molecule, how does the Potency read?
Its Potency is inconclusive [activator, partial curve, poor fit].

With `Cc1oc2ccc(O)c(CN3CCCC3)c2c1C(=O)Nc1ccc(C(C)C)cc1` as the molecule, how does the Potency read?
The Potency was inconclusive [falling, single point].

Which Potency does the source give for `CCOC(=O)CN(Cc1ccccc1)C(C(=O)NC1CCCCC1)c1ccc(OC)cc1` (configuration not stated) here?
The Potency was inconclusive [falling, single point].

Which Potency does the source give for `COc1cccc(Nc2sc(C(=O)c3ccc(Cl)cc3)c(N)c2C(=O)NCc2ccc(C)cc2)c1` here?
The Potency was inconclusive [falling, single point].

Which Potency does the source give for `COc1ccc(NC(=O)c2c(C)oc3ccc(O)c(CN4CCN(Cc5ccccc5)CC4)c23)cc1Cl` here?
The Potency was inconclusive [falling, single point].

Which Potency does the source give for `CCOc1ccc(CNC(=O)CC(C)n2nc(C)cc2C)cc1OC` (configuration not stated) here?
Its Potency is inconclusive [falling, full curve, poor fit].

With `CC(C)CC(=O)Nc1cc(-c2ccccc2F)nn1-c1ccccc1` as the molecule, how does the Potency read?
Its Potency is inconclusive [falling, partial curve, poor fit].

Which “activity change, negative = inhibition” value does the source give for `CC(=O)c1ccc(NS(=O)(=O)c2ccc(-c3cnc(C4CC4)o3)cc2)cc1` here?
The value was inactive: -1.5%.

With `Cc1ccc(CNc2oc(-c3ccc(COc4ccc(C)cc4)o3)nc2C#N)cc1` as the molecule, how does the Potency read?
Its Potency is inconclusive [falling, single point].

Which Potency does the source give for `Cc1ccc2nc(NC(=O)CSc3nccn3-c3ccc(Cl)cc3)sc2c1` here?
Its Potency is inconclusive [falling, partial curve, poor fit].
